Data taken from PubChem BioAssay AID743279 (National Center for Advancing Translational Sciences (NCATS), 2014).
The campaign covered roughly 360,000 compounds. About 17,000 (4.7%) were called active. This list was built around the results that the source calls inconclusive (neither active nor inactive); the mix of calls is not that of the screen. Rule as the data show it: active = activity change below about -50%; inconclusive = mostly about -30% to -49%; inactive = weaker than that.

Test: qHTS for Inhibitors of Inflammasome Signaling: IL-1-beta AlphaLISA Primary Screen
Details: THP-1 LPS/ATP IL-1B secretion, 16 h; at 57.5 µM, stronger effect = lower value
Method in brief: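 THP-1 cells pretreated 1 hr with compounds (up to 57.5 uM final), then stimulated with LPS (250 ng/mL final) plus ATP (1.25 mM final); secreted IL-1B measured by AlphaLISA after 16 hr, decreased signal indicating inhibition.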
% is scaled to controls: 0 for no effect and ±100 for the full control effect.

Activity change, inconclusive:
COc1ccc(CCNC(=O)c2ccc3c(c2)N(Cc2ccccc2)CCS3)cc1OC -38.7%
COc1ccc(CCN(C)C/C=C/c2ccccc2)cc1OC -31.5%
CCc1nc2c(OCc3ccc(Cl)cc3Cl)cccn2c1N(C)C(C)=O -48.9%
COc1ccccc1CNC(=O)c1c(N)n(CCCN2CCOCC2)c2nc3ccccc3nc12 -38.3%
Cc1cc(=O)[nH]c(SCC(=O)C23CC4CC(CC(C4)C2)C3)c1C#N -41%
COc1ccc(CN(C)C(C)C(=O)Nc2ccc(S(=O)(=O)N3CCCCC3)cc2)c(OC)c1 (stereo not given) -45%
OC1(c2ccc(Cl)cc2)CCN(Cc2cn[nH]c2-c2ccc(F)cc2)CC1 -43.3%
CCN1CCN(CCc2nc3cc(NC(=O)COc4ccc(Cl)cc4)ccc3n2C)CC1 -32%
Cc1ccc(C(=O)NNC(=O)c2cccc3ccccc23)cc1 -43.2%
O=c1nc(N2CCCCC2)nc(Nc2ccccc2)[nH]1 -47.2%
COc1ccccc1C(=O)Nc1ccc(S(=O)(=O)Nc2nccs2)cc1 -33.4%
CCCC(c1nnnn1CCc1ccccc1)N1CCN(C2CCCC2)CC1 (stereo not given) -32.6%
Cc1ccnc(NC(=O)c2cc3cc(F)ccc3s2)c1 -46.2%
CCc1ccc(-c2cc(C(=O)NN3CCN(C)CC3)c3ccccc3n2)cc1 -45%
C[n+]1ccccc1Nc1cc([N+](=O)[O-])ccc1N -42.9%
CC(/C=N/NC(=O)Cc1cccn1C)=C\c1ccccc1 -45.7%
CN[C@H]1C[C@H]2c3[nH]c4ccc(-c5cccc(C)c5)cc4c3CCN2C[C@H]1[C@H](C)O -34.8%
CCCCNCCOCCOc1ccc(Cl)cc1Br -44.8%
O=C(CN1CCCN(S(=O)(=O)c2ccc(F)cc2)CC1)Nc1ccccc1Br -35.3%
COc1ccc(NC(=O)CNc2cccc(C#N)c2)cc1Cl -30.9%
Cc1ccc(-n2c(=O)[nH]c3c(oc4ccccc43)c2=O)cc1 -39.8%
COc1ccc(NC(=O)/C(C#N)=C/c2c(C)nn(-c3ccc(F)cc3)c2Cl)cc1OC -32.2%
C#Cc1ccc([C@H]2C=C(C(=O)NCc3nc4ccccc4[nH]3)O[C@@H](OCC)[C@@H]2CCCO)cc1 -38.1%
O=C1c2ccccc2C(=O)c2[nH]c(=O)[nH]c21 -36%
CC(O)(c1ccccc1)C(c1ccccc1)C1CCCCN1 (stereo not given) -45.1%
CCn1nc(NC(=O)c2cccs2)c2cc3ccccc3nc21 -33.6%
CCCC(=O)N(c1ccccc1)C1C=CS(=O)(=O)C1 (stereo not given) -43.5%
O=C(COc1cc(F)ccc1[N+](=O)[O-])NCCN1C(=O)CSC1=O -44.2%
CCc1nc2ccc(C(=O)NCCCn3ccnc3)cn2c1N(C)Cc1cc2ccccc2s1 -42.9%
COc1cccc(CNC(=O)C2CCN(Cc3cnn(-c4ccccc4)c3-n3cccc3)CC2)c1 -33.6%
NC(=O)c1sc2nc(N3CCOCC3)c3c(c2c1N)CCCC3 -44.5%
CCOc1cc(C(=O)N=c2sccn2C)cc(Br)c1OC -32.9%
COc1ccc(C2CC(c3cccs3)=NN2C(=O)CSc2nc(=O)n3ccc(C)cc3n2)cc1 (stereo not given) -31%
CC(C)CNC(=S)N(CCO)Cc1cc2cc3c(cc2[nH]c1=O)OCO3 -36.3%
Cn1cccc1Cc1nnc(SCC(=O)N2CCCC2)n1CCc1ccccc1 -34.7%
Cc1ccc2c(Cl)cc(Cl)c(OCC(=O)Nc3cccc(S(N)(=O)=O)c3)c2n1 -31.6%
COC(=O)C1=C(C)NC(C)=C(C(=O)OC)C1c1ccc(-c2cccc(Cl)c2Cl)o1 -35.7%
O=c1oc2c3c4c(cc2c2c1CCC2)OCCN4CCC3 -36.7%
COc1ccc(-c2[nH]c(-c3ccccc3)nc2SCC(=O)NC2CCCC2)cc1 -45.2%
CCN1CCN(c2ccccc2NC(=O)c2ccc(-n3cccn3)cc2)CC1 -45.1%
COc1cccc(NC(=O)c2ccc(CN3CCc4ccccc4C3)cc2)c1 -41.9%
CCOC(=O)c1c(C)[nH]c(C)c1C(=O)COC(=O)c1cccc(S(=O)(=O)NC)c1 -37.7%
COc1cc2cnc(-c3cccnc3)cc2cc1OC -45.3%
COc1c(CC=C(C)C)cc(C2CC(=O)c3c(O)cc(O)cc3O2)cc1CC=C(C)C (stereo not given) -49.5%
Cc1ccc(Cn2c(=O)oc3ccccc32)cc1 -43.6%
C/C(=N\NC(=S)NC(C)C)c1ccc(C(C)(C)C)cc1 -49.9%
O=C(Cc1c[nH]c2ccccc12)N1CCc2ccccc21 -40.5%
Cc1ccc(Cl)cc1NC(=O)c1ccc(CSc2nnnn2C)cc1 -35%
O=C(NCCOc1ccccc1)N1[C@H]2CC[C@@H]1C=C(c1ccc(F)cc1OCc1ccccc1)C2 -41.7%
O=C(CCCN1C(=O)c2cccc3cccc(c23)C1=O)N1CCN(c2ncccn2)CC1 -32.2%

Activity change, active:
COc1ccccc1Nc1nc(N)nc(CCl)n1 -100%
Clc1ccc2c(c1)-c1nnc(Br)n1-c1ccccc1S2 -55.1%
Cc1ccc(Cl)cc1NC(=S)N(CCN(C)C)C(C)c1ccccn1 (stereo not given) -73.5%
COCCNc1nc(NCc2cccs2)nc2ccsc12 -90%
O=C(Nc1nccs1)c1cn(-c2ccccc2)nc1-c1ccccc1 -62.5%
CC1=[N+](C)c2c(ccc3cccnc23)C1(C)C -112%
COc1ccc(NC(=O)c2cc3ccccc3cc2O)cc1 -98.9%
COc1cc(NC(=O)c2cccc(Cl)c2)c(OC)cc1NC(=O)CN1CCCCC1 -78.7%
CC#CC#Cc1cccc(=O)o1 -74.9%
Oc1c(C(c2ccccc2)N2CCOCC2)ccc2ccccc12 (stereo not given) -98.7%
CC1(C)Cc2c(sc(NC(=O)COc3cccc4ccccc34)c2C#N)C(C)(C)N1 -100%
Fc1ccc(CNC(=S)Nc2ccc(Cl)cc2Cl)cc1 -100%
COc1ccc([N+](=O)[O-])cc1NC(=O)C(C)OC(=O)CN1C(=O)C2CC=CCC2C1=O (stereo not given) -62.9%

Activity change, inactive:
CCN(CC)S(=O)(=O)c1ccc2c(c1)[nH]c(=S)n2CC 0%
COc1ccc(NC(=O)CCNC(=O)c2ccccc2Cl)cc1S(=O)(=O)N1CCCCC1 32.4%
COc1ccc(-c2noc3c2-c2nc(-c4ccccc4F)sc2CC3)cc1 -4.73%
CC(=O)Nc1nc(C)nc(-c2ccccc2OC(C)=O)n1 3.14%
O=C(NC(=O)c1ccccc1)Nc1cccc(S(=O)(=O)N2CCCCC2)c1 19.3%
CCN(CC)c1ccc(/C=N/NC(=O)c2cccc(S(=O)(=O)N3CCOCC3)c2)c(O)c1 200%
CCOc1ccc(Oc2ccccc2NS(=O)(=O)c2ccc(CCC(=O)O)cc2)cc1 6.71%
Cc1ccc2c(c1)c1nc3ccccc3nc1n2C -6.01%
O=C(CSc1ncnc2scc(-c3ccccc3)c12)N1CCN(Cc2ccc3c(c2)OCO3)CC1 -25.5%
COc1cc(C(=O)NCCOc2ccc(Cl)cc2)ccc1OCc1c(C)noc1C 36.2%
O=C(O)c1cc(N/N=C/c2ccc3c(c2)OCO3)ccc1Cl 1.48%
CCCCSCc1nc2ccccn2c1Br 17.6%
O=C1CCCC2=C1C1(CCCCC1)N=C(Nc1nc3ccccc3s1)N2 26.9%
C=CCCN(C(C(=O)OC)C(C)C)S(=O)(=O)c1ccccc1Br (stereo not given) 17.1%
COc1ccc2nc(Nc3nc(C)c(C(C)=O)s3)sc2c1 -26.9%
COC(=O)[C@H](C)NC(=O)N1CCC(Cc2ccccc2)CC1 -1.86%
CCCc1c(C)nc(N2CCN(c3ccccc3F)CC2)[nH]c1=O -19.2%
CN(C)S(=O)(=O)c1ccc(Cl)c(C(=O)NC2CCCCCCC2)c1 -4.41%
CCOC(=O)[C@]12CCCC=C1N(CCC1=CCCCC1)C(=O)[C@H](CC(=O)NCCCN1CCCC1=O)C2 7.12%
CCN(CC)CCNC(C(=O)Nc1cc(C(F)(F)F)ccc1Cl)c1ccccc1 (stereo not given) 16.9%
CC(C)CN(C(=O)c1ccc(Br)o1)C1CCS(=O)(=O)C1 (stereo not given) -12.5%
COc1cc(C(=O)COC(=O)c2ccc([N+](=O)[O-])o2)cc(OC)c1OC -9.97%
COc1cc2c(cc1OC)CN(C(=O)c1cc(S(=O)(=O)N3CCOCC3)ccc1Cl)CC2 -22%
Cn1c(=Nc2ccc(N3CCOCC3)cc2)ccc2ccccc21 -4.59%
CCC1CN(C(=O)NCc2cccc(OC)c2)c2ccccc2O1 (stereo not given) 10.1%
COc1ccc(OC)c(NC(=O)c2cc(S(=O)(=O)N3CCCC3)cn2C)c1 -21.4%
Cc1cc(C(=O)c2cnc(/N=C/N(C)C)s2)c(F)cc1Cl 0.625%
